Assay results published in publication PMC4336329 (PLoS ONE, 2015).
Screen size: about 310,000 compounds; about 14,000 (4.5%) showed an effect of 50% or more. Effects have a minus sign here. The list shows a part of the results.

What follows are compounds tested against human ether-à-go-go-related gene (hERG) potassium channel (human, UniProt Q12809) (assay: primary screen, population patch clamp on CHO cells stably expressing hERG).
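Also: peak tail current of the secondary pulse compared with the same well before compound.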

human ether-à-go-go-related gene (hERG) potassium channel, sequence (Q12809 whole entry, looked up): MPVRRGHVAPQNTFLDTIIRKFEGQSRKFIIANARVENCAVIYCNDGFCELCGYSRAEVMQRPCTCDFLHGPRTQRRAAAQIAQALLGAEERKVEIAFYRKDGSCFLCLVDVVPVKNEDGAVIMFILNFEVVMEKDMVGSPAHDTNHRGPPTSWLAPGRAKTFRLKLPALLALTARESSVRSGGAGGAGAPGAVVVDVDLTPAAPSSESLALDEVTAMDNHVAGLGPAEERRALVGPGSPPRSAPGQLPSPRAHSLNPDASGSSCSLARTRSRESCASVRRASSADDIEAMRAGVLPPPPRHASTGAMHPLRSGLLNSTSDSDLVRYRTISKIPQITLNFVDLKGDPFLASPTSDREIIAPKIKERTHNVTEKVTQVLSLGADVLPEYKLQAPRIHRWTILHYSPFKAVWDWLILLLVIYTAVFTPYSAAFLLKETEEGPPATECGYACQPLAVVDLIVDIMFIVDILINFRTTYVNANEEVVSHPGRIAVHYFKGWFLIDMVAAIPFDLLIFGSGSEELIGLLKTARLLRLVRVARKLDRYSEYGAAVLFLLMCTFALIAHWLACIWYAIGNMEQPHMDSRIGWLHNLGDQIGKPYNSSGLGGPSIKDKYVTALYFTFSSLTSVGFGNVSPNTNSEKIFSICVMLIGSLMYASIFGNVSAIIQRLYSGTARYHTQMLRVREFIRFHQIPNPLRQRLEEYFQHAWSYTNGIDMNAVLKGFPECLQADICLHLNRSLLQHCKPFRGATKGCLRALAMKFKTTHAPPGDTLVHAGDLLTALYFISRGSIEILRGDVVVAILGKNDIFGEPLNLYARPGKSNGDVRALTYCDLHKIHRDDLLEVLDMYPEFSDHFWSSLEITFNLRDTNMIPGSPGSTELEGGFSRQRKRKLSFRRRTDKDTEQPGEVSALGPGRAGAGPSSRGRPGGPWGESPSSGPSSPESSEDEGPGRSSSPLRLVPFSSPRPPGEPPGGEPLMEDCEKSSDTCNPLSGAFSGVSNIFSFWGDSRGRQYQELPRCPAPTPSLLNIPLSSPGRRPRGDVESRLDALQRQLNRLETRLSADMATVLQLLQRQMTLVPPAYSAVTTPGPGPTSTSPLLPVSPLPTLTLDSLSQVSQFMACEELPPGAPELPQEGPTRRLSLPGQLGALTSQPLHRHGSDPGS

SMILES | hERG current change (%, negative = inhibition) at 10uM [%]
CCc1cc(C(=O)NNC(=S)NC(C)c2ccccc2)cs1 (stereo not shown) | 2.63
Cc1cccc(C(=O)N[C@H](C(=O)Nc2cc(S(=O)(=O)N3CCCCC3)ccc2C)C(C)C)c1 | 7.99
COc1ccccc1N1CCN(C(=O)C2CCCN(S(=O)(=O)c3ccc4c(c3)CCCN4C(C)=O)C2)CC1 (stereo not shown) | 8.54
CC(=O)c1cnc2c(-c3ccccc3)c(C)nn2c1C | -2.36
Cn1c(=O)c2c(ncn2CC(O)CO)n(C)c1=O (stereo not shown) | 9.46
CCOc1ncccc1C(=O)OCC(=O)c1ccc(C)c(C)c1 | -20.2
Cc1ccc(OCc2cc(C(=O)N(C)Cc3cc(C4CC4)n[nH]3)no2)cc1C | 7.98
Cc1ccc(N/N=C/c2c(O)n(-c3ccccc3)c(=O)[nH]c2=O)cc1 | 4.73
Cc1cc(Cl)ccc1NC(=S)NCc1ccc(S(N)(=O)=O)cc1 | 5.2
COc1ccc([C@H]2CC(=O)C=C(c3cccc(Cl)c3)C2)cc1 | -11.8
COC(=O)c1ccccc1N=Cc1c(O)[nH]c(=S)[nH]c1=O | 14.3
O=C(C1=NN[C@@H]2C(=O)N(c3ccccc3C(F)(F)F)C(=O)[C@H]12)c1cnccn1 | 7.64
O=c1[nH]c2ccc(S(=O)(=O)N3CCN(C4CCCCC4)CC3)cc2[nH]c1=O | 0.776
Cn1c(C(=O)OC(C(=O)NC2CCCCC2)c2ccccn2)cc2sccc21 (stereo not shown) | -4.65
Cc1cccc(C)c1N1CCN(S(=O)(=O)N(C)C)CC1 | 23.5
Cc1ccc(S(=O)(=O)N(NC2=NS(=O)(=O)c3ccccc32)C(=O)c2ccccc2)cc1 | -15.7
Cc1cccc(C(=O)N/N=C/C(C)Cc2ccc3c(c2)OCO3)c1 (stereo not shown) | -4.43
CCC(C)(C)n1nnnc1CN1CCC(c2nc3ccc(C)cc3[nH]2)CC1 | -48.3
CCOC(=O)N1CCN(C(=O)CCc2ccc(S(=O)(=O)NCCc3ccccc3)cc2)CC1 | -34.6
COc1cccc(CN(C)C(=O)c2cccnc2SC)c1OC | 9.74
CCOc1ccccc1N1CC(C(=O)Nc2ccccc2CC)CC1=O (stereo not shown) | 7.86
CC1CCC(NC(=O)Cn2c3c(c(-c4ccccc4Cl)cc2=O)CCC3)CC1 (stereo not shown) | -20.8

SMILES | hERG current change (%, negative = inhibition) at 10uM [%]
COc1ccc2cc3cc(C(=O)NCC4CCCO4)oc3nc2c1 (stereo not shown) | -9.38
O=C(Nc1c2c(nn1-c1cccc(Cl)c1)CS(=O)C2)c1ccc2c(c1)OCO2 (stereo not shown) | -12.7
COc1ccc(NC(=S)NNC(=O)Cn2nc([N+](=O)[O-])cc2C)cc1 | 13.7
CC(=O)Nc1ccc(S(=O)(=O)N2CCn3cccc3C2C)cc1 (stereo not shown) | -16.3
O=C(CN1CCNCC1)Nc1ccccc1Cl | -2.06
O=C(c1cc([N+](=O)[O-])cc([N+](=O)[O-])c1)N(c1ccccn1)c1ccccn1 | -11.9
CC(=O)N1CCN(CC(=O)Nc2ccc(Cl)c(S(=O)(=O)N(C)C)c2)CC1 | 8.45
COC(=O)c1ccc(Cn2nc(C)c([N+](=O)[O-])c2C)o1 | 12.9
O=C(Nc1cc2c(cc1C(=O)O)OCCCO2)c1ccc(F)cc1F | 12.2
COc1ccc(/C=C2\SC(=S)N(CCC(=O)N3CCOCC3)C2=O)cc1 | 19.7
COc1ccc(N2CCN(C(=O)Cc3ccc(S(=O)(=O)N4CCOCC4)s3)CC2)cc1 | -19.7
N#C/C(=C/c1ccc(-c2ccccc2[N+](=O)[O-])o1)C(=O)NCCN1CCCCC1 | -69.1
CC(C)(C)NC(=O)C(c1ccccn1)N(C(=O)c1csnn1)C1CCCC1 (stereo not shown) | -10.3
Cc1cc(Cl)c(S(=O)(=O)N/N=C/c2ccc3c(c2)OCO3)c(Cl)c1 | 2.77
COc1ccc(C(=O)Nc2cc3c4c(c2)C(C)C(=O)N4CCC3)cc1 (stereo not shown) | -15.5
COCCCNC(=O)c1ccc(CS(=O)(=O)Cc2cccc(C)c2)o1 | -5.75
O=C(CSc1ncn[nH]1)Nc1ncc(C(F)(F)F)cc1Cl | 19.2
Cc1cc(C)cc(OCC(=O)OCC(=O)NC2CCCC2)c1 | 2.19
Cc1sc2ncnc(NCC(C)(C)N3CCOCC3)c2c1C | -71.7
Cc1ccn(CC(=O)N2CCCC(C(=O)c3cccc4ccccc34)C2)n1 (stereo not shown) | 13.1
CC(=O)Nc1ccc(C(=O)NNC(=O)c2cccs2)cc1 | 17
O=C(Nc1ccccc1O)c1cccc(NC(=O)c2ccco2)c1 | 2.51

SMILES | hERG current change (%, negative = inhibition) at 10uM [%]
COc1ccc(C(CNC(=O)C(CC(C)C)NS(=O)(=O)c2ccc(C)cc2)N2CCOCC2)cc1 (stereo not shown) | -3.25
CSCCC(C(=O)Nc1ccc2c(c1)OCO2)N1C(=O)c2ccccc2C1=O (stereo not shown) | -6.23
COc1ccc(-c2nn(-c3ccccc3)cc2/C=N/NC(=O)c2cccc(S(=O)(=O)Nc3ccccc3Cl)c2)cc1 | -11.1
CSc1nnc(C(C)(C)C)c(=O)n1/N=C/c1ccc(Cl)cc1 | 0.0206
CC(=O)N1CCC(C(=O)NC2CCCc3c2cnn3-c2cc(F)cc(F)c2)CC1 (stereo not shown) | -4.52
O=C(c1ccco1)N1CCN(Cc2c(Cl)cccc2Cl)CC1 | -8.42
Cc1ccccc1N1CCN(C2CCCN(C(=O)c3cnsn3)C2)CC1 (stereo not shown) | -58.2
CCCCNC(=S)N/N=C/c1ccc(C)s1 | -1.99
COc1cccc(-c2ccc(NC(=O)C3CCCN(Cc4cnc(C)s4)C3)cc2)c1 (stereo not shown) | 2.11
Cc1c(C(=O)O)oc2ccc3c(c12)C(O)CC(C)(C)O3 (stereo not shown) | 13.7
O=C(Cc1ccc(F)cc1)Nc1cccc2cccnc12 | -9.5
S=C(NC1CC1)N1CCc2ccccc2C1 | 0.433
CC12CCC(C(=O)N(CCCCN3CCN(c4ccccn4)CC3)C1=O)C2(C)C (stereo not shown) | -46.3
Cl.O=C(/C=C/c1cn(-c2ccccc2)nc1-c1ccc2c(c1)OCCO2)NCCCN1CCOCC1 | -5.65
Cc1cc(OCC(=O)N2CCC(C(=O)NCC(C)C)CC2)c2c3c(c(=O)oc2c1)CCCC3 | 9.92
COCCN1CCn2c(nc3cc(NC(=O)Cn4nc(C)c5ccccc5c4=O)ccc32)C1 | 17.8
COc1ccc(CCN2C(=O)CC(C(N)=O)SC2=Nc2ccccc2)cc1OC (stereo not shown) | -16.9
COc1ccc(-n2c(SCc3ccc([N+](=O)[O-])cc3)nnc2-c2ccccc2)cc1 | -24.4
CC1CCC(NC(=O)CNC(=S)N2CC3CC(C2)c2cccc(=O)n2C3)CC1 (stereo not shown) | 8.46
Cc1cc(NC(=O)CCCN2C(=O)/C(=C\c3cccs3)SC2=S)no1 | 11.5
Cn1c2ccccc2c2cc(/C=N/NC(=O)c3cc(O)cc(O)c3)ccc21 | 26
CCOC(=O)c1sc(NC(=O)/C=C/c2ccc(F)cc2)nc1C | -27.3

SMILES | hERG current change (%, negative = inhibition) at 10uM [%]
Cc1noc(-c2ccccc2OC(=O)c2ccccc2)n1 | 3.36
CCOc1ccc(NC(=O)C(C)NS(=O)(=O)c2ccc(NC(C)=O)cc2)cc1 (stereo not shown) | 16.8
O=C(NCC(=O)N(c1cccc(F)c1)C(C(=O)NC1CCCC1)c1cccnc1)c1cccs1 (stereo not shown) | -2.35
CCOC(=O)c1cc2c(=O)n3ccccc3nc2n(CCCOC)c1=NC(=O)c1cccnc1 | -68
C1CCc2c(nc3nnnn3c2N2CCOCC2)C1 | -3.03
C[C@H](CCC(=O)[O-])[C@H]1CC[C@H]2[C@@H]3[C@H](O)C[C@@H]4C[C@H](O)CC[C@]4(C)[C@H]3C[C@H](O)[C@]12C.[Na+] | 6.42
O=C(COc1ccc(F)cc1)Nc1nnc(C2CC2)s1 | -5.03
CCc1cc(=O)oc2cc(OCC(=O)N3CC[C@@]4(O)CCCC[C@H]4C3)ccc12 | 4.79
O=C(O)C1CCC(N2C(=O)C3C4CCC(C4)C3C2=O)CC1 (stereo not shown) | 14.6
CCc1cccc(NC(=O)CCC(=O)N2CCSc3ccccc32)c1 | -34.8
O=C(NCCCn1ccnc1)C(=O)NCC1OCCN1S(=O)(=O)c1ccc(F)cc1 (stereo not shown) | 13.6
CC(C)CN(C(=O)c1cccc(F)c1)c1c(N)n(CC(C)C)c(=O)[nH]c1=O | 26.8
CC(=O)Nc1ccc(N=Cc2c(O)c(C(=O)Nc3ccccc3)cc3ccccc23)cc1 | 18.4
Cc1cc(Oc2cnn(C(C)(C)C)c(=O)c2Cl)cc(C(C)C)c1 | 15.4
COc1ccc(CCN2CC(C(=O)NCCc3cn[nH]c3)CCC2=O)cc1 (stereo not shown) | -10.8
Cc1cccc(OCC(=O)N/N=C/C=C/c2ccco2)c1 | 7.41
Cc1ccc(N2CCOCC2)c2c1C(=O)c1ccccc1C2=O | -19.1
CC(C)(C)N(Cc1nc(-c2ccccc2)no1)C(=O)c1ccc2c(c1)OCO2 | 7.02
COc1cccc(C(=O)/C=C/Nc2cccc(O)c2)c1 | -4.68
